# Results reported in the supplement of paper PMC10338343.
# ± gives the standard deviation. The entries are a selection whose mix differs from that of the whole data set.
# Test system: MIWI (PIWIL1) piRISC loaded with piRNA #1 (30 nt)
# Assay: pre-steady-state target cleavage rate (min^-1); MIWI and MILI are mouse PIWI proteins and EfPiwi is from a freshwater sponge; tags in brackets are library labels; higher = faster piRNA-guided slicing of the target
# Details: guide: piRNA #1 5'p-UGAGGUAGUAGGUUGUAUAGUAUCCAGAGG; auxiliary factor: 500 nM mouse GTSF1
# Summary of the method: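 The method was Cleave-'n-Seq, in which uncleaved targets from a transcribed, DNA-blocked target RNA library were sequenced after exposure to active affinity-purified piRISC carrying one synthetic guide, with or without GTSF1 partner protein. Reactions contained 0.1 nM library, 1 nM piRISC and, where present, 500 nM GTSF1 in HEPES–potassium acetate buffer at 33 °C for 0–8 or 0–960 min. Reads were normalised to depth and to weakly complementary targets, three trials were pooled, and k3 was capped at 0.0001 min^-1. The pre-steady-state cleavage rate came from a burst-and-steady-state fit.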
row,Sequence,pre-steady-state target cleavage rate
1,GGACUCGAUACUAUACAUCCUACUACCUCA,1.54 ± 0.1
2,GGAGAGCAUACUAUACAACCUACUAGCUCA,0.276 ± 0.041
3,GGAGACCUAUGAUAACUAGCUACUACCUCA,< 0.0001
4,GGAGAGGAUACUAAACAACCUUCUACCUCA,0.484 ± 0.025
5,GGACUGGAUACUAUACAACCUUGUACCUCA,0.0296 ± 0.0061
6,GGAGAGGAUACUAUACAACCUACUACCUCG [g2:g25:cont:t1G],0.774 ± 0.045
7,GGUCUGGAUACUAUACAACCUACUAGGACA,< 0.0001
8,GCUCUGGAUACUAAUCAACCUACUACCUCA,1.33 ± 0.082
9,GGACUGGAUACUAUACACCUACUACCUCA,0.233 ± 0.035
10,GGAGAGGAUACUAUACAACCUACUACCUACA,1.18 ± 0.064
11,CCUACUGGAUACUAUACAACCUACUACCUCA,2.04 ± 0.11
12,GGAGAGGAUACUAUACGACCUACUACCUCA,1.28 ± 0.079
13,GCUCUGGAUACUAUACAACCUUCUACGUCA,0.436 ± 0.034
14,GGAGAGGAUACAAAACAACCUACUACCUCA,0.787 ± 0.082
15,CCUCUGGAAACUAUACAACCUACUACCUGA,0.67 ± 0.083
16,GGAGACCAUACUAUACAACCCACUACCUCA,0.675 ± 0.031
17,GGAGACGAUACUACACAACCUACUACCUCA,1.8 ± 0.12
18,GGAGUGGAUACUAUACAACCAACUAGCUCA,0.0216 ± 0.0041
19,GGACUGGAUUACUAUACAACCUACUACCUCA,1.55 ± 0.13
20,GGUCUGGAUACUAUACAACCAACUUCCUCA,0.00959 ± 0.0019

row,Sequence,pre-steady-state target cleavage rate
1,GGAGACCUUACUAUACAACCUACUAGCUCA,0.974 ± 0.076
2,GGAGACCUAUGUAUACAACCUACUACCAGA,0.00496 ± 0.0018
3,GGAGACCAUACUUAACAACCUACUACCUCA,0.218 ± 0.031
4,GGACUGGAAUCUAUACAACCUACUACCUCA,1.11 ± 0.12
5,GCUCUGGAUAGUAUACAACCUACUACGUCA,0.805 ± 0.064
6,GGAGUGGAUAGUAUACAACCUACAACCUCA,0.521 ± 0.045
7,GGACUGGAUACUAUACAACCUACUACUUCA,1.09 ± 0.1
8,CCUCUGGAUACUAUACAACCUACUACUCUCA,2.32 ± 0.16
9,GGAGACGAUACUAUACAAACCUACUACCUCA,0.00307 ± 0.0031
10,GGUCUGGAUACAAUACAUCCUACUACCUCA,1.17 ± 0.068
11,GGAGACCAUACUAUACAUCCUACAACCUCA,0.68 ± 0.057
12,GGUCUGGAUAGUAUACUACCUACUACCUCA,0.595 ± 0.064
13,GGUCUGGAUACUAUACAACCAACAACCUCA,0.0418 ± 0.0076
14,CCUCUGGAUACUAUAUCAACCUACUACCUCA,0.922 ± 0.1
15,GGAGACCUAACUAUACAACCUAAUACCUCA,0.38 ± 0.042
16,GGAGACCUAUGAUAUGACCCUACUACCUCA,< 0.0001
17,GGAGACCUAUGAUAUCUACCUACUUCCUCA,< 0.0001
18,GGACUCGAAACUAUACAACCUACUACCUCA,1.29 ± 0.11
19,GGAGACCAUACUAAAGAACCUACUACCUCA,0.246 ± 0.026
20,GGAGACCUAACAAUACAUCCUACUACCUCA,0.0512 ± 0.019
